Variants at the floor of the assay are shown more often than the library holds them.
B1: TPR 5TU (parent)
chain: GGAUCUUCUCGAUCUAACAAAAAAGACAAAUCUGCCACAAAGCUUGAGAGCAUCUUCGGAUGCAGAGGCGGCAGCCUUCGGUGGCGCGAUAGCGCCAACGUUCUCAACUAUGACACGCAAAACGCGUGCUCCGUUGAAUGGAGUUUAUCAUG

Variants of: B1
Experiment: polymerase ribozyme fitness, log enrichment relative to wild type (log ratio); higher = more active; in vitro selection for triplet polymerase activity
Summary of the method: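 Only genotypes with ≥10 input reads and ≥1 read per output were kept after Illumina sequencing of input and output libraries. These libraries were PCR-built, transcribed mutants of each subunit of a heterodimeric triplet polymerase ribozyme, each put through one triplicate in vitro selection round with frozen incubation at −7 °C, gel excision of extended constructs, streptavidin-bead capture and RT-PCR. Fitness is a logarithmic ratio of genotype enrichment to wild-type enrichment, from inverse-variance-weighted replicate averages, with the logarithm in base 2.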

Polymerase ribozyme fitness (log ratio), -3.14:
A23G C87U

Polymerase ribozyme fitness (log ratio), -4.19:
A22U G88C A147C

Polymerase ribozyme fitness (log ratio), -3.77:
A23G C93U

Polymerase ribozyme fitness (log ratio), -1.73:
A22U G83C

Polymerase ribozyme fitness (log ratio), -3.89:
A23C C87U

Polymerase ribozyme fitness (log ratio), ≤ -4.2:
A22U A26C U45A G48U U82G C87G C129G
A22U A26C U56A A60C C72G C87A C116G A147U
A22U A28U C57U U77G C85G G92U
A22U A28U U55A C93U
A22U A29G A150G
A22U A29U A41G U90G C93G C95U G140U
A22U A29U C95U A119C C132U
A22U A29U U56A G83A G152U
A22U A30C G80C A120U
A22U A30G G46C G50C A52C U55G C72U U82A C87A G88C U90A C99U
A22U A30G U56A G86A C123U G136A
A22U A30U C35G U53A C87U U102A C103U U144C
A22U A37G A41G G48C G94U
A22U A37G A49C G62U C75G C76A G81U C85G G128C
A22U A37U G42C U55A C72G A115G C149U A150G
A22U A37U G133U G143C
A22U A39C A47C A52C G58C C76G A89U A91G C95G G124C
A22U A39U A40C A66C C105U
A22U A41C C43U C54U U77A U82A C87G C99G U146C
A22U A49C
A22U A49C C96U A110U G140A
A22U A66C C85G
A22U A66C C87U
A22U A73C G92U A110G U111C G141C
A22U A91U
A22U C27A C32A A41U C57A G84C A142G
A22U C27G A29C C51A A60G U61G C93G
A22U C32G U134C
A22U C35G C76G G92A C105U
A22U C35U C51A G58A C75A C96U G152A
A22U C38A G70C C76A C79G U148G G152U
A22U C57U A60G C87G U90A G128A
A22U C63U G86U A107C U109C
A22U C72U A91C U130A
A22U C76U A107G C116G
A22U C85A U90G A137G G143C
A22U C87G U90G A97U
A22U C87U A89C U111A A115C
A22U C87U C93U C95U C118U
A22U G25U G46A C85A C93A C125A
A22U G25U G70C U139A
A22U G34A C103A G126U
A22U G34A G74U G94A A119C G143A
A22U G42C G80A A91G C95G A98U
A22U G42U G86A A113C C116A
A22U G48A C85G A97U
A22U G48C C51U C116G G124A A150G
A22U G48U U55A A60G C103G A121U U135C G143U A150C
A22U G59C G92A U104G C123U G133U
A22U G81A C85U G88A A91U
A22U G94C C95G C96A A122U
A22U U33A G50A U61A G67A C87U A119U G124C
A22U U55A G88A C103G A106C
A22U U55G A137G G140U
A22U U90A A98G
A23C A24U C35U G50A C95U A137U
A23C A24U G50A G83A A98U G141C
A23C A26G A37G G84U A137U
A23C A26U U33G C76A U101G U145G
A23C A28C G46A U55A C96U
A23C A28U A40G C93G
A23C A30G A40G U45A C72A C79G U82A
A23C A37C A73U A89G A91C C108G
A23C A37C C96G U127G U139A U144C
A23C A37C G143C
A23C A37C U55A G65U G128U G143C U148A
A23C A39U G80A
A23C A41G C57G
A23C A49G C63U G86C G126C A147U
A23C A49U G83U U151C
A23C A52C C54U G62C C85G
A23C A73U G83A C93U U145C
A23C A91U C99G G152A
A23C A115U
A23C C32A A41C A49G G50C G84A G117U U134A
A23C C32G C72U C96A A122G
A23C C32U A64G G81A C87G C95U C96A A97G A138C G141U
A23C C32U U33C
A23C C35A U45G C57U C93G U151C
A23C C36A
A23C C38A U45C C54A A91U G140U
A23C C43A A52U A119C U135G U139A G140A A142G
A23C C43A C95G
A23C C54G C57U C93G U101C C105A G124U G141A
A23C C63U A64G G83C U90G C116A
A23C C76U C93U
A23C C79G A91U C95U C116U A147C
A23C C79G C87U
A23C C93U G141U
A23C C103U
A23C G25A U31C G50U C75G G92A C99G
A23C G46U U56A A64C G80U C99A C116G A121U
A23C G68A
A23C G80C C87G U146G G152A
A23C G84C C96A G136A U144A
A23C G88U U144G
A23C U31C C63A G70A C95U G136A
A23C U31C C99U C123U U134C
A23C U31G C108G A115G
A23C U44A U45A G74A A91G
A23C U53A C54U G67C G81U C85G G128A
A23C U53A G83C A91G A147U
A23C U55A C87G C114G G133U G136U
A23C U55A G58C
A23C U56A G84U C85A G143C
A23C U56G U82A C125A U139G
A23G A24G C36A A40U C54A A64G U82G C93G
A23G A28G C38A G46C C85U
A23G A29C C87A U144A
A23G A39C U61A G84A A142U
A23G A40C U146G
A23G A49G C51A G70A G136A
A23G A49U A73U A91U G94U A98U A119G C125A
A23G A64G G81A C108A G124U G143U
A23G C27U C125A G143U
A23G C35U G42A U56A
A23G C36A G92C G94A U102G A119C
A23G C54U C93U G128C
A23G C54U G68U C95U
A23G C57A C63U G70C G74U U111C G140U A142C U148G
A23G C57U A91G C103G C108A
A23G C57U C85U A98G U148C
A23G C76G G81A U90G C93U A98U A122U
A23G C79U C93U A122U
A23G G46C C93U G112A G136U
A23G G46U C79G G88A
A23G G59C U111G
A23G G62A A73U C76G G88A C105U A106G
A23G G80A G83A C118U
A23G G84U U144G
A23G G86A A89C A106U A115C G136A U148A
A23G G92U C118G A150G
A23G U44A G83C U144C
A23G U56G C93G C103G U135G G143C
A23U A26U A41U G50A G65C A91C C103G G128U
A23U A28C C87A G152U
A23U A29C A119U
A23U A29G A41C U53A A64U C87G C118G A121U U145A
A23U A29U G59A A60C A142U
A23U A37C A52C G84U A121G G126C
A23U A37U A97U U111C
A23U A39U A52C C99G A122G
A23U A40G C87A G141U
A23U A40U G42A U77C G83U G140A
A23U A41C U55G C79U G84C G143A

Polymerase ribozyme fitness (log ratio), 0.261:
A22U C99A

Polymerase ribozyme fitness (log ratio), -3.86:
A23G C93U U101A G140U

Polymerase ribozyme fitness (log ratio), 0.455:
A22U C87U

Polymerase ribozyme fitness (log ratio), -3.78:
A23G C35A A142G

Polymerase ribozyme fitness (log ratio), -0.0944:
A22U C99U

Polymerase ribozyme fitness (log ratio), -3.87:
A23C C93A

Polymerase ribozyme fitness (log ratio), -3.98:
A23G A40C G81A U145C
A23G G50C G84U C85G A150C

Polymerase ribozyme fitness (log ratio), 0.375:
A22U U82A C96U

Polymerase ribozyme fitness (log ratio), -2.84:
A22U U55A A115C C123U U130G

Polymerase ribozyme fitness (log ratio), -4.16:
A22U A41U A60U A106U

Polymerase ribozyme fitness (log ratio), -3.34:
A22U G86C

Polymerase ribozyme fitness (log ratio), -2.5:
A22U C57G G58A C114G

Polymerase ribozyme fitness (log ratio), -3.63:
A22U G92A C95A C105U

Polymerase ribozyme fitness (log ratio), -4.08:
A23G C54A U55G G58A G59C

Polymerase ribozyme fitness (log ratio), -1.54:
A22U G46A A115G

Polymerase ribozyme fitness (log ratio), -3.41:
A23G G59U C95U

Reference: the RNAGym collection of RNA variant scans (doi:10.1073/pnas.2313332121)
